Assay results: the supplement of paper PMC4967469
The IC50 comes from the fitted curve, where viability falls to half of the control; a fit beyond the top or the lowest dose is shown as a bound at that dose. AUC sums up the same curve from the lowest dose to the 256-fold higher top dose; the more sensitive the line, the further below 1. Where the top dose is marked as inferred, it was derived from the fitted curves, not read from the paper.

Legend:
Test in all cases: Viability of human cancer cell lines after 72 h of drug (GDSC screen)
[1] = compound: CCOc1cc(N2CCC(O)CC2)ccc1Nc1ncc2c(n1)N(C)c1ccccc1C(=O)N2C [XMD8-92]; conditions: top dose 10 µM; top dose inferred
Method: (§1)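 Human cancer cell lines in 384-well plates, medium with 10% serum, drug for 72 h over a 256-fold dose range (nine 2-fold or five 4-fold steps up to the top dose). Adherent lines were fixed and stained with the nucleic acid dye Syto60, suspension lines read with resazurin; signal relative to control wells, capped at 0 and 100%. One two-parameter sigmoid per drug and line, fitted in a mixed model over all curves with the slope shared within a line.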

[2] = compound: CC(C)(C)OC(=O)Nc1ccc(-c2cc(C(=O)NCCCCCCC(=O)NO)no2)cc1 [CAY10603]; conditions: top dose 20 µM; top dose inferred
Method: as §1

[3] = compound: CCc1cc2c(cc1N1CCC(N3CCOCC3)CC1)C(C)(C)c1[nH]c3cc(C#N)ccc3c1C2=O [CH5424802]; conditions: top dose 5.12 µM; top dose inferred
Method: as §1

[4] = compound: N#Cc1c(C2CCNCC2)cc(-c2c(O)cccc2OCC2CC2)nc1N [ACHP (KIN001-260)]; conditions: top dose 20 µM; top dose inferred
Method: as §1

Cell Line	AUC [1]	IC50 [1]	AUC [2]	IC50 [2]	AUC [3]	IC50 [3]	AUC [4]	IC50 [4]
SW982 (soft tissue, adherent)	0.831	6.6 µM	0.596	2.32 µM	0.979	> 5.12 µM	0.971	> 20 µM
SW1271 (small cell lung carcinoma, adherent)	0.931	> 10 µM	0.504	1.28 µM	0.979	> 5.12 µM	0.857	> 20 µM
SW1573 (lung adenocarcinoma, adherent)	0.912	> 10 µM	0.719	6.54 µM	0.975	> 5.12 µM	0.979	> 20 µM
SW1710 (bladder, adherent)	0.863	9.08 µM	0.591	2.24 µM	0.985	> 5.12 µM	0.924	> 20 µM
SW1783 (glioma, adherent)	0.99	> 10 µM	0.627	2.69 µM	0.989	> 5.12 µM	0.991	> 20 µM
T84 (large intestine, adherent)	0.949	> 10 µM	0.69	4.32 µM	0.971	> 5.12 µM	0.954	> 20 µM
T-24 (bladder, adherent)	0.865	8.2 µM	0.708	4.66 µM	0.984	> 5.12 µM	0.981	> 20 µM
TC-71 (Ewing sarcoma, adherent)	0.855	5.97 µM	0.356	0.539 µM	0.992	> 5.12 µM	0.88	14.8 µM
TE-1 (oesophagus, adherent)	0.891	> 10 µM	0.962	> 20 µM	0.981	> 5.12 µM	0.982	> 20 µM
TE-4 (oesophagus, adherent)	0.986	> 10 µM	0.642	3.07 µM	0.983	> 5.12 µM	0.983	> 20 µM
TE-5 (oesophagus, adherent)	0.882	> 10 µM	0.98	> 20 µM	0.984	> 5.12 µM	0.984	> 20 µM
TE-8 (oesophagus, adherent)	0.93	> 10 µM	0.985	> 20 µM	0.984	> 5.12 µM	0.969	> 20 µM
TE-9 (oesophagus, adherent)	0.929	> 10 µM	0.987	> 20 µM	0.987	> 5.12 µM	0.984	> 20 µM
TE-10 (oesophagus, adherent)	0.878	9.82 µM	0.978	> 20 µM	0.983	> 5.12 µM	0.973	> 20 µM
TE-12 (oesophagus, suspension)	0.95	> 10 µM	0.983	> 20 µM	0.953	> 5.12 µM	0.961	> 20 µM
TGBC1TKB (biliary tract, adherent)	0.961	> 10 µM	0.677	3.88 µM	0.988	> 5.12 µM	0.989	> 20 µM
TGW (neuroblastoma, adherent)	0.974	> 10 µM	0.303	0.383 µM	0.978	> 5.12 µM	0.863	13.5 µM
TK10 (kidney, adherent)	0.865	> 10 µM	0.978	> 20 µM	0.972	> 5.12 µM	0.908	> 20 µM
TK (B-cell lymphoma, suspension)	0.969	> 10 µM	0.339	0.468 µM	0.981	> 5.12 µM	0.947	> 20 µM
TMK-1 (stomach, adherent)	0.925	> 10 µM	0.812	11.5 µM	0.986	> 5.12 µM	0.949	> 20 µM
TOV-21G (ovary, adherent)	0.907	> 10 µM	0.727	5.92 µM	0.98	> 5.12 µM	0.961	> 20 µM
TOV-112D (ovary, adherent)	0.886	> 10 µM	0.481	1.11 µM	0.966	> 5.12 µM	0.966	> 20 µM
TT2609-C02 (thyroid, adherent)	0.96	> 10 µM	0.479	1.09 µM	0.975	> 5.12 µM	0.985	> 20 µM

Cell Line	AUC [1]	IC50 [1]	AUC [2]	IC50 [2]	AUC [3]	IC50 [3]	AUC [4]	IC50 [4]
TT (thyroid, adherent)	0.949	> 10 µM	0.952	> 20 µM	0.98	> 5.12 µM	0.981	> 20 µM
TUR (B-cell lymphoma, suspension)	0.947	> 10 µM	0.336	0.455 µM	0.978	> 5.12 µM	0.924	> 20 µM
TYK-nu (ovary, adherent)	0.93	> 10 µM	0.538	1.6 µM	0.98	> 5.12 µM	0.984	> 20 µM
U-2-OS (osteosarcoma, adherent)	0.941	> 10 µM	0.44	0.847 µM	0.968	> 5.12 µM	0.985	> 20 µM
UACC-62 (melanoma, adherent)	0.811	5.23 µM	0.696	4.41 µM	0.986	> 5.12 µM	0.988	> 20 µM
UACC-893 (breast, adherent)	0.978	> 10 µM	0.738	7.73 µM	0.938	> 5.12 µM	0.964	> 20 µM
UWB1.289 (ovary, adherent)	0.889	> 10 µM	0.638	3.63 µM	0.976	> 5.12 µM	0.979	> 20 µM
VA-ES-BJ (soft tissue, adherent)	0.977	> 10 µM	0.727	5.75 µM	0.986	> 5.12 µM	0.983	> 20 µM
VAL (B-cell lymphoma, suspension)	0.911	> 10 µM	0.184	0.14 µM	0.967	> 5.12 µM	0.86	16.9 µM
VCaP (prostate, adherent)	0.88	> 10 µM	0.405	0.68 µM	0.892	> 5.12 µM	0.987	> 20 µM
VMRC-MELG (melanoma, adherent)	0.933	> 10 µM	0.605	2.46 µM	0.988	> 5.12 µM	0.951	> 20 µM
VMRC-RCZ (kidney, adherent)	0.934	> 10 µM	0.561	1.89 µM	0.881	> 5.12 µM	0.97	> 20 µM
WIL2-NS (lymphoid neoplasm, suspension)	0.873	6.69 µM	0.039	< 0.0781 µM	0.977	> 5.12 µM	0.913	19.6 µM
WM35 (melanoma, adherent)	0.826	6.1 µM	0.406	0.691 µM	0.98	> 5.12 µM	0.857	16.4 µM
WM278 (melanoma, adherent)	0.922	> 10 µM	0.863	> 20 µM	0.983	> 5.12 µM	0.954	> 20 µM
WM1552C (melanoma, adherent)	0.941	> 10 µM	0.556	1.78 µM	0.984	> 5.12 µM	0.987	> 20 µM
WM-115 (melanoma, adherent)	0.919	> 10 µM	0.534	1.58 µM	0.968	> 5.12 µM	0.947	> 20 µM
WSU-DLCL2 (B-cell lymphoma, suspension)	0.992	> 10 µM	0.933	> 20 µM	0.99	> 5.12 µM	0.979	> 20 µM
YH-13 (glioma, adherent)	0.865	9.65 µM	0.674	3.95 µM	0.986	> 5.12 µM	0.971	> 20 µM
huH-1 (liver, adherent)	0.965	> 10 µM	0.949	> 20 µM	0.984	> 5.12 µM	0.984	> 20 µM
no-10 (glioma, adherent)	0.903	> 10 µM	0.606	2.62 µM	0.977	> 5.12 µM	0.979	> 20 µM
no-11 (glioma, adherent)	0.956	> 10 µM	0.758	8.59 µM	0.983	> 5.12 µM	0.969	> 20 µM
